Data: article PMC4336329 (PLoS ONE, 2015)
The campaign covered roughly 310,000 compounds. About 14,000 (4.5%) showed an effect of 50% or more. Effects have a minus sign here. This is one part of the list.

target: human ether-à-go-go-related gene (hERG) potassium channel (human, UniProt Q12809); test: primary screen, population patch clamp on CHO cells stably expressing hERG
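Note: peak tail current of the secondary pulse compared with the same well before compound.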

Chain of human ether-à-go-go-related gene (hERG) potassium channel (Q12809 whole entry, looked up): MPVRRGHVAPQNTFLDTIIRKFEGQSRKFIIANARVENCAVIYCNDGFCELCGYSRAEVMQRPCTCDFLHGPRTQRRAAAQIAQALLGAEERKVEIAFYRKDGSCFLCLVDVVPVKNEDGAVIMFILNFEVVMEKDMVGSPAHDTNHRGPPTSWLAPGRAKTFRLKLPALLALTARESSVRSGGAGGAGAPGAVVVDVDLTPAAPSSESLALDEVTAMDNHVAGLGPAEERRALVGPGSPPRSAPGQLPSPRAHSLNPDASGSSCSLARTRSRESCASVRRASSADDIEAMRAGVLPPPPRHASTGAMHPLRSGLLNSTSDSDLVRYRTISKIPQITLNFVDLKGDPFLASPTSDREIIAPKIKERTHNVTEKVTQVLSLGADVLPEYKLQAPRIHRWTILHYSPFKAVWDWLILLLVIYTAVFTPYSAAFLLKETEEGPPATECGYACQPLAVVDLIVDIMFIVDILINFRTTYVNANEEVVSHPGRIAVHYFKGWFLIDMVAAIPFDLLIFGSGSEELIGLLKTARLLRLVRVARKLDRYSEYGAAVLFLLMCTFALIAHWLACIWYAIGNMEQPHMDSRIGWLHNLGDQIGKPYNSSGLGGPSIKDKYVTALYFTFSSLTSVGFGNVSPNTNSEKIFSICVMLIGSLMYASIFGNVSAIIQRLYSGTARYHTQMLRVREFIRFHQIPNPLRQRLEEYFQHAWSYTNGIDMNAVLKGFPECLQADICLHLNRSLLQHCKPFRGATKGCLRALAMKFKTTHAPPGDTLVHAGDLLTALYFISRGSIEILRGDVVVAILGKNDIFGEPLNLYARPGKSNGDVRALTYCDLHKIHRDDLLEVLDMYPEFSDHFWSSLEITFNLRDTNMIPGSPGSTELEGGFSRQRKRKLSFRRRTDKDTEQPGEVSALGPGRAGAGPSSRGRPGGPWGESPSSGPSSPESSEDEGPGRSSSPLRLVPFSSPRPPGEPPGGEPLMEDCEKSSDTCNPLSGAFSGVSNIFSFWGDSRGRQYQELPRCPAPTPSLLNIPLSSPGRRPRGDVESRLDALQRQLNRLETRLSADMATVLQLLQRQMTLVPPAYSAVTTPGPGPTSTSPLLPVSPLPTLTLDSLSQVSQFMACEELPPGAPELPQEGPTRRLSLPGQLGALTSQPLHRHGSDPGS

Row | Compound | hERG current change (%, negative = inhibition) at 10uM
1 | O=C(Oc1ccccc1)N1CCN(c2ccccc2F)CC1 | -18.1%
2 | CCOc1ccc(C(=O)CSc2nnc3ccccn23)cc1 | -8.67%
3 | Cc1c(NC(=O)c2ccc3c(c2)OCO3)cccc1-c1nc2ccccc2s1 | 12.7%
4 | Nc1ccc(C(=O)[O-])c(O)c1.[Na+] | 16.6%
5 | CN(C(=O)COC(=O)c1ccc2c(c1)NC(=O)CS2)C1CCS(=O)(=O)C1 (stereo not shown) | 31.3%
6 | CC(=O)Nc1ccc(S(=O)(=O)N2CCN(CCc3ccccc3)CC2)cc1 | -24%
7 | Cc1ccc(NC(=O)CSc2ccc(-c3ccc(-n4cccn4)cc3)nn2)c(C)c1 | 3.71%
8 | Cc1ccccc1OCC(=O)Nc1cccc2nsnc12 | -5.51%
9 | COc1ccc(N2CCN(CC(=O)Nc3nnc(-c4ccccc4)s3)CC2)cc1 | -3.81%
10 | COc1ccc(OC)c(S(=O)(=O)NC2CCN(Cc3ccccc3)CC2)c1 | -4.92%
11 | Cc1ccc(CS(=O)Cc2ccc(C(=O)NC3CCCCCC3)o2)cc1 (stereo not shown) | 8.98%
12 | CCC(C)c1ccc(S(=O)(=O)N2CCN(C(C)C(=O)NC3CCCC3)CC2)cc1 (stereo not shown) | -79.1%
13 | CCCCC(=O)Nc1ccc(NC(=O)c2ccc([N+](=O)[O-])cc2)cc1OC | -10.6%
14 | CCCCc1c(C)[nH]c(=S)[nH]c1=O | 16.6%
15 | CC(=O)N1CCc2cc(C(=O)CN3CCN(c4cccc(Cl)c4)CC3)ccc21 | -0.529%
16 | O=C(CN1CCOCC1)N/N=C/C=C/c1ccccc1 | -26.3%
17 | C#CCOCCOCCOCCNc1nc(N2CCN(C(=O)[C@H]([C@@H](C)CC)n3cc([C@@H](N)CC(C)C)nn3)CC2)nc(N2CCN(C(=O)[C@H](Cc3cc4ccccc4[nH]3)n3cc([C@@H](N)Cc4ccc(O)cc4)nn3)CC2)n1.Cl | 7.83%
18 | COc1ccc(OCC(O)CN(C)C(=O)/C=C/c2cccc([N+](=O)[O-])c2)cc1 (stereo not shown) | -80.5%
19 | CN(c1ccccc1C(=O)Nc1ccc(S(=O)(=O)N2CCOCC2)cc1)S(=O)(=O)c1ccccc1 | -2.58%
20 | CCOc1ccccc1CN1CCC(Oc2cccc(C(=O)NCCOC)c2)CC1 | -30.8%
21 | Cc1ccc2c(c1)c1c(c(=O)n(-c3ccccc3C)c(=O)n1CC(=O)NCC1CCCO1)n2C (stereo not shown) | -38.2%
22 | COC(=O)CNS(=O)(=O)c1ccc(Cc2ccc(S(=O)(=O)NCC(=O)OC)cc2)cc1 | -18.4%
